Results published in PubChem BioAssay (NCI).
Where “and” joins values, the source holds several entries; their conditions need not be identical. Equal values may be shown once.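 Cells were grown in 96-well plates and exposed to each compound for 48 hours at five concentrations; endpoints were interpolated linearly between bracketing concentrations, or set to the highest concentration if not reached. At the GI50, growth is halved. TGI: concentration producing complete growth inhibition.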 Square brackets hold non-standard residues; d marks the D form. Peptide text beside a SMILES is read from it. * marks the point of attachment. ξ: configuration not given here. ξF = NC(Cc1ccccc1)C(=O)O; Cbz = O=C(OCc1ccccc1)*; Aib = CC(C)(N)C(=O)O; NHNH2 = NN*

Test system: NCI-H322M lung
Assay: DTP human tumour cell line panel, 48 h

| Compound | GI50 | TGI |
| --- | --- | --- |
| COCC1CCCN1c1ccc(C=N/C(C#N)=C(\N)C#N)cc1 (stereo not given) | 58.5 µM | > 100 µM |
| c1ccc([P+](CCSCCSCC[P+](c2ccccc2)(c2ccccc2)c2ccccc2)(c2ccccc2)c2ccccc2)cc1 | – | > 100 µM |
| CC(C)(NC(=O)OCc1ccccc1)C(=O)NC(Cc1ccccc1)C(=O)NN (stereo not given) (Cbz-[Aib]-[ξF]-NHNH2) | – | > 100 µM |
| CC1=Nc2ccccc2S/C1=C(/C)NNS(=O)(=O)c1ccc(C)cc1 | – | > 100 µM |
| O=C(CC(=O)N1N=C(N2CCCCC2)CC1c1ccccc1)Nc1ccccc1 (stereo not given) | – | > 100 µM |
| Cc1cc(NCCCCCCCCNc2cc(C)nc3cc(N)ccc23)c2ccc(N)cc2n1 | – | 67.6 µM |
| N#CCCN(c1ccc(C=Nc2ccccc2)cc1)S(=O)(=O)c1ccccc1 | – | > 100 µM |
| CC(NC(=O)/C(=C/c1ccccc1)NC(=O)c1ccccc1)C(=O)O (stereo not given) | – | > 100 µM |
| CC(C)C1=CC(=O)C(C)(C2C(O)CC3(C)C4CC=C5C(CCC(OC6OC(CO)C(O)C(O)C6OC6OC(C)C(O)C(O)C6O)C5(C)C)C4(C)C(=O)CC23C)O1 (stereo not given) | – | > 100 µM |
| Nc1nccc(-c2c(-c3ccc(F)cc3)ncn2C2CCNCC2)n1 | 8.44 µM and 5.47 µM | > 25 µM |
| CC(C)(C)OC(=O)n1c2ccccc2c2c(=O)nc(N3CCCCC3)sc21 | – | > 100 µM |
| N#Cc1nc(CCN2C(=O)c3ccccc3C2=O)oc1N | – | > 100 µM |
| CCOC(=O)c1c[nH]c2c(Sc3ccccc3)nccc2c1=O | – | > 100 µM |
| COC(=O)c1n[nH]c(C)c1N=NN(C)CCC#N | – | 54.2 µM |
| Oc1ccc(O)c(CNc2ccc(C(O)C(F)(F)F)cc2)c1 (stereo not given) | – | > 100 µM |
| Cc1coc2c1C[C@@]1(C)[C@H](CCC[C@@H]1C)[C@H]2O | – | > 100 µM |
| CCOC(=O)c1ccc(NC(=O)Nc2nncs2)cc1 | 0.508 µM | 29.6 µM |
| CN(CCN1C(=O)c2cc([N+](=O)[O-])cc3cc([N+](=O)[O-])cc(c23)C1=O)CCN1C(=O)c2cc([N+](=O)[O-])cc3cc([N+](=O)[O-])cc(c23)C1=O | – | > 100 µM |
| COC(=O)/C(C#N)=C(\Nc1ccccc1)N1CCOCC1 | – | > 100 µM |
| O=P12N(CCN1c1ccccc1)CCN2c1ccccc1 | – | > 100 µM |
| CC(N)C(Cc1ccc(Cl)cc1)c1ccc(Cl)cc1 (stereo not given) | 13.2 µM | 26.6 µM |
| CC(C)(C)c1ccc(S(=O)(=O)Oc2ccc3c4c(c(=O)oc3c2)CCCCC4)cc1 | 40.5 µM | > 100 µM |
| COc1cc(OC)c2c(c1)OC(c1ccccc1)CC2=O (stereo not given) | – | > 10 µM |
| Cc1ccccc1N=Nc1c(O)c(S(=O)(=O)O)cc2cc(S(=O)(=O)O)ccc12 | – | > 100 µM |
| NC1=CN(CCCO)C2=N/C(=C\c3ccccc3)C(=O)N12 | – | > 100 µM |
| Cc1c(Cl)cccc1NC(=O)C(=O)C(C(=O)c1ccccc1-c1ccccc1)C1OC(=O)c2ccccc21 (stereo not given) | – | 46.9 µM |

| Compound | GI50 | TGI |
| --- | --- | --- |
| O=c1c2cc(I)ccc2nc(SCc2nncs2)n1Cc1ccccc1 | – | > 100 µM |
| CCSCC1CC(O)(c2ccccc2)CC(c2ccc(F)cc2)O1 (stereo not given) | 2.18 µM | 7.7 µM |
| Cc1ccn2c(=O)cc(CN3CCOCC3)nc2c1 | – | > 100 µM |
| Cc1cc2c(c(C=Nc3ccccc3O)c1)OC1(C=C2)Oc2ccccc2C(=O)N1C (stereo not given) | – | 35.7 µM |
| O=C1/C(=C\Oc2ccc(F)cc2)N2CCC1CC2 | – | > 100 µM |
| COC(=O)C(C(=O)C(=O)Nc1c(C)cccc1C)c1cnc2ccccc2n1 (stereo not given) | – | > 100 µM |
| CC(C)=CCC[C@@H](C)/C=C/C=C(\C)C(=O)CC[C@@H]1CC[N@+]2(C)CCCC[C@H]12 | – | > 100 µM |
| CN(C)CCCN1C(=S)N(CCCN(C)C)c2c3ccccc3nc3c([N+](=O)[O-])ccc1c23 | – | 22.4 µM |
| COc1cc(NS(C)(=O)=O)ccc1Nc1cc[nH]c2ccc3nccc3c12 | – | 24.2 µM |
| CC(C)(C)OC(=O)NC(CCCCNC(=O)OCc1ccccc1)C(=O)NCCNc1ccc(NCCNC(=O)C(CCCCNC(=O)OCc2ccccc2)NC(=O)OC(C)(C)C)c2c1C(=O)c1ccccc1C2=O (stereo not given) | – | > 100 µM |
| Cc1nc(-n2nc(-c3ccccc3)cc2-c2ccccc2)sc1C(=O)/C=C/c1ccc(/C=C/C(=O)c2sc(-n3nc(-c4ccccc4)cc3-c3ccccc3)nc2C)cc1 | – | 73.7 µM |
| CCc1n[nH]c(=O)n1/N=C/c1ccccc1O | – | > 100 µM |
| OC(c1ccccc1)(c1ccccc1)c1nccc2ccccc12 | – | > 100 µM |
| Fc1cccc(COc2ccc(Nc3ncnc4sc(-c5cccs5)cc34)cc2Cl)c1 | 5.97 µM | 18.1 µM |
| CC1(C)O[C@@H]([C@H](O)CO)[C@H](O)[C@@H](C2SCCCS2)O1 | – | > 100 µM |
| CN(C)c1ccc(C=Nc2ccc(-c3nc4ccccc4[nH]3)cc2)cc1 | – | > 100 µM |
| CC(=O)OCC1OC(n2cc(F)c(=O)[nH]c2=O)C(NC(=O)N(CCCl)N=O)C(OC(C)=O)C1OC(C)=O (stereo not given) | – | > 100 µM |
| C[C@@H](NC1CCCC[C@H]1O)c1ccccc1 (stereo not given in full) | – | > 100 µM |
| COc1ccccc1NC(=S)NN=C(C)c1cccc(C(C)=NNC(=S)Nc2ccccc2OC)n1 | – | > 100 µM |
| Cc1c(N2C(=O)/C(=C/c3ccc(Cl)cc3)N=C2c2ccccc2)c(=O)n(-c2ccccc2)n1C | – | > 100 µM |
| C=C1CC[C@@H]2[C@](C)(COC(C)=O)[C@H](OC(C)=O)CC[C@@]2(C)[C@@H]1CC(Nc1ccc(S(=O)(=O)NC(C)=O)cc1)C1=CCOC1=O (stereo not given in full) | 10.3 µM | 20.3 µM |
| O=C1CSC(/C=C/c2ccccc2)N1c1nc2cc3sc(N4C(=O)CSC4/C=C/c4ccccc4)nc3cc2s1 (stereo not given) | – | > 100 µM |
| COC[C@@H](N=C1NC(=O)/C(=C/c2ccc3ncccc3c2)S1)c1ccccc1 | 8.55 µM | > 25 µM |
| CC(C)(O)/C=C\P(=O)(O)O | – | > 100 µM |
| O=C(NCCCCCCCCCCCCNC(=O)c1cccc2ccccc12)c1cccc2ccccc12 | – | > 100 µM |
